In PubChem BioAssay AID686978 (National Center for Advancing Translational Sciences (NCATS), 2013):
“And” between values parts separate entries of the source, which are not always exact repeats. Identical values can stand only once. The whole screen tested about 420,000 compounds, of which about 64,000 (15%) were called active. Inconclusive means that the source gave no clear call. Such entries were picked first, then a sample of the others. Calls come from the whole dose curve; as a rule, active = well fitted inhibition curve with a large enough effect; inconclusive = small, poorly fitted or top-dose-only effect; inactive = flat fitted curve, though single readings scatter. Potencies of inconclusive entries are left out as doubtful fits.
% is set by controls: 0 for no effect and ±100 for the full control effect; potency is the fitted concentration of half-maximal effect; tags give direction and shape of the fitted curve.

Test: qHTS for Inhibitors of human tyrosyl-DNA phosphodiesterase 1 (TDP1): qHTS in cells in absence of CPT; note: nearly all actives have a fitted effect of over 55% in size
Conditions: DT40 Tdp1-/- hTDP1 cells, no CPT, ATP luminescence, 48 h; activity change, negative = growth inhibition: at 46.2 µM (top of the series) unless noted
How it was run: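 Luminescent ATP content (CellTiter-Glo) served as the growth readout. Knockout chicken DT40 cells expressing human TDP1 were exposed to compounds without camptothecin for a minimum 48 hr at 37 °C.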
For NNC(=O)C1c2ccccc2Oc2ccccc21, the Potency was “inactive”. With COCCn1c(=O)sc2ccccc2c1=O the Potency was inconclusive [inhibitor, single point]. In the case of CCCCCCCCNC(C)C(O)c1ccc(SC(C)C)cc1 (stereo not given), the Potency is reported as active: 7.31 µM and active: 16.4 µM. With Cc1ccccc1Nc1c(-c2cccnc2)nc2ccccn12 the Potency was inconclusive [inhibitor, single point]. In the case of Cn1nc(-c2ccc(C(=O)Nc3cccc(C(F)(F)F)c3)cc2)c2ccccc2c1=O, the Potency is reported as inconclusive [inhibitor, single point]. In the case of COc1cccc2cc(C(N)=O)/c(=N\NC(=O)c3ccccc3)oc12, the Potency is reported as inconclusive [inhibitor, partial curve]. In the case of CCC(=O)Nc1cccc(C2=NOC3(C2)C[C@@H](C(N)=O)N(C(=O)c2ccccc2C(=O)c2ccccc2)C3)c1 (stereo not given in full), the Potency is reported as “inactive”. In the case of CCOC(=O)C1=C(C)NC2=C(C(=O)CC(C)(C)C2)C1c1cccc(C)n1 (stereo not given), the Potency is reported as “inactive”. For CCOC(=O)c1[nH]c2ccccc2c1NC(=O)c1ccc(S(=O)(=O)N2CCOCC2)cc1, the Potency was inconclusive [inhibitor, single point]. For Cc1cccc(CNC(=O)c2ccc3c(c2)N(C)C(=O)C2CCCCN32)c1 (stereo not given), the Potency was inconclusive [inhibitor, single point]. In the case of CCOc1ccc(NS(=O)(=O)c2ccc3[nH]cc(C(=O)NCc4ccccc4)c(=O)c3c2)cc1, the Potency is reported as inconclusive [inhibitor, full curve, poor fit]. For CC1(C)Cc2cccc(OCC(=O)N3CCN(S(=O)(=O)c4ccccc4)CC3)c2O1, the Potency was inconclusive [inhibitor, partial curve, poor fit]. With Cc1cc(C)cc(NC(=O)C(NCCN2CCOCC2)c2ccccc2)c1 (stereo not given) the Potency was inconclusive [inhibitor, single point]. With Cc1ccc(CNC(=O)c2cc(S(=O)(=O)N3CCCCCC3)cn2C)cc1 the Potency was “inactive”. In the case of O=C(NCCSc1ncc(-c2ccccc2)[nH]1)c1ccco1, the Potency is reported as inconclusive [inhibitor, single point]. For CN1OC[C@@H]2CN(Cc3cc(Cl)cc(Cl)c3)[C@H](c3cccc(-c4ccccc4)c3)C[C@@H]21, the Potency was “inactive”. With CCOc1ccccc1NC(=O)CN1c2ccccc2S(=O)(=O)c2ccccc21 the Potency was inconclusive [inhibitor, single point]. For Nc1cnc(Nc2ccc(Br)cc2)nc1N, the Potency was active: 14.6 µM. In the case of O=C(NCC1CCCN1S(=O)(=O)c1cccs1)c1ccccc1 (stereo not given), the Potency is reported as inconclusive [inhibitor, single point]. With C[C@@H]1CCC[C@]2(O[C@@H](CCO)C[C@@H](O)[C@@H]2O)O1 the Potency was “inactive”. In the case of O=C(N/N=C/c1ccc([N+](=O)[O-])o1)c1cc(-c2ccc(-c3ccccc3)cc2)nc2ccccc12, the Potency is reported as active: 0.461 µM. In the case of Cc1ccc(C)c(CN2C(=O)c3ccccc3S(=O)c3ccc(C(=O)N4CCN(c5ccccn5)CC4)cc32)c1 (stereo not given), the Potency is reported as active: 16.4 µM. In the case of C[C@H]1CN([C@@H](C)CO)C(=O)c2cccc(NC(=O)C3CC3)c2O[C@H]1CN(C)Cc1ccc(-c2ccccc2)cc1, the Potency is reported as inconclusive [inhibitor, single point]. With Cc1nn(CC(=O)Nc2ccc(Cl)cc2Cl)c(=O)c2ccccc12 the Potency was “inactive”. For Cc1ccc(CN(C)C(=O)c2cccc(S(=O)(=O)N3CCCC3)c2)cc1, the Potency was inconclusive [inhibitor, single point]. With COc1cccc(OC)c1C(=O)N1CCN(Cc2ccccc2C)CC1 the Potency was inconclusive [inhibitor, single point]. With N#Cc1cc(C(=O)c2cc(Br)ccc2O)cn(Cc2ccccc2)c1=O the Potency was active: 20.6 µM. In the case of O=C(NC(=S)N1CCN(c2ccccc2)CC1)c1ccc(S(=O)(=O)N2CCOCC2)cc1, the Potency is reported as inconclusive [inhibitor, single point]. In the case of Cc1nn(C)c(C)c1S(=O)(=O)N(CC(=O)N1CCN(c2ccccc2)CC1)c1ccc(C(C)C)cc1, the Potency is reported as active: 16.4 µM. With O=C(O)C1CCN(C(=O)c2ccccc2N2C(=O)[C@@H]3Cc4c([nH]c5ccccc45)C(c4cccc(Cl)c4)N3C2=O)CC1 (stereo not given in full) the Potency was “inactive”. With C#CCSc1nc(Cc2ccc(Cl)cc2)nc2ccccc12 the Potency was inconclusive [inhibitor, single point]. In the case of COC(=O)C(NC(C)=O)(Nc1ccc(Br)cn1)C(F)(F)F (stereo not given), the Potency is reported as “inactive”. For COc1cc(CNC(C)C23CC4CC(CC(C4)C2)C3)cc(OC)c1OC (stereo not given), the Potency was inconclusive [inhibitor, single point]. In the case of Nc1sc2c(c1C(=O)NCCc1ccccc1)CCCC2, the Potency is reported as active: 14.6 µM. In the case of COCCN1C(=O)c2ccccc2C1c1nc2ccccc2[nH]1 (stereo not given), the Potency is reported as “inactive”. For CCN(CC)S(=O)(=O)c1ccc(NC2CCN(Cc3ccccc3)CC2)nc1, the Potency was inconclusive [inhibitor, partial curve, poor fit]. With CCC1CCCCN1C(=O)c1cc(S(=O)(=O)N2CCOCC2)ccc1C (stereo not given) the Potency was inconclusive [inhibitor, partial curve]. In the case of CCOc1ccccc1NC(=O)C1CCN(S(=O)(=O)c2ccc3[nH]c4c(c3c2)CCCCC4)CC1, the Potency is reported as inconclusive [inhibitor, single point]. With CC1(Cc2cc(Cl)ccc2C(F)(F)F)C(=O)Nc2ccc(-c3ccc(F)c(Cl)c3)cc21 (stereo not given) the Potency was inconclusive [inhibitor, single point]. In the case of CCOC(=O)C1=C(C)NC(C)=C(C(=O)OC)C1c1ccco1 (stereo not given), the Potency is reported as “inactive”. With COc1ccccc1-n1cnnc1SCC(=O)N1CCOCC1 the Potency was “inactive”. With O=C1C2=C(Nc3ccccc3SC2c2ccccc2C(F)(F)F)c2ccccc21 (stereo not given) the Potency was active: 3.26 µM. For CCOc1ccc(CN2CCNC(=O)C2CC(=O)NCc2ccccn2)cc1 (stereo not given), the Potency was “inactive”. With COc1ccc(C(N)=O)cc1NC(=O)CC(O)(C(F)(F)F)C(F)(F)F the activity change, negative = growth inhibition was inconclusive: -34.3% [inhibitor]. In the case of Cc1ccc(C)c(NC(=O)Cn2c(=O)ccc3cc(S(=O)(=O)N4CCCC4)ccc32)c1, the Potency is reported as inconclusive [inhibitor, single point]. In the case of COc1cc2c(cc1OC)C(c1cc(Br)c(OC)c(OC)c1)CC(=O)N2 (stereo not given), the Potency is reported as inconclusive [inhibitor, partial curve, poor fit]. For O=C1CSC2(N1)C1CC3CC(C1)CC2C3 (stereo not given), the Potency was “inactive”. For COc1ccc(/C=N/OCC(=O)N2CC3(C)CC2CC(C)(C)C3)cc1OC (stereo not given), the Potency was inconclusive [inhibitor, single point]. For CCCCCNC(=O)c1ccc2c(c1)nc(C)n2-c1cccc(C)c1, the Potency was inconclusive [inhibitor, single point]. In the case of CCOC(=O)C1(C)NC(c2ccc(OC)c(OC)c2)C2C(=O)N(CC)C(=O)C21 (stereo not given), the Potency is reported as “inactive”. In the case of COc1ccc(NC(=O)c2sc3nc4c(cc3c2N)CCCCCC4)cc1OC, the Potency is reported as inconclusive [inhibitor, single point]. In the case of C(=C\c1c[nH]c2ccccc12)/c1cc[n+](C2CCCCC2)cc1, the Potency is reported as inconclusive [inhibitor, single point]. For CCOC(=O)c1ccc(N(C(=O)c2ccccc2)c2ccccc2)cc1, the Potency was inconclusive [inhibitor, single point]. For Cc1ccccc1NC(=O)c1ccc(F)c(S(=O)(=O)N(C)C2CCCCC2)c1, the Potency was inconclusive [inhibitor, single point]. In the case of Cc1nc(-c2ccc(C)c(S(=O)(=O)N3CCC(C(=O)Nc4ccc(Cl)cc4)CC3)c2)no1, the Potency is reported as inconclusive [inhibitor, partial curve, poor fit]. For CCOc1ccc(S(=O)(=O)NC(Cc2c[nH]c3ccccc23)C(=O)O)cc1 (stereo not given), the Potency was “inactive”. For CCCOc1ccc(F)cc1-c1cc(C(=O)NCc2ccc(C(F)(F)F)cc2)[nH]n1, the Potency was active: 16.4 µM. In the case of CCOC(=O)c1[nH]c(C)c(C(=O)NCCC2=CCCCC2)c1C, the activity change, negative = growth inhibition is reported as inconclusive: -31% [inhibitor]. In the case of O=C(O)c1cc([N+](=O)[O-])ccc1NCCO, the Potency is reported as “inactive”. For CCCCCN=c1ccn(Cc2ccccc2)c2ccccc12, the Potency was active: 2.11 µM. In the case of O=C(NCCN1CCOCC1)c1ccc2c(c1)N(Cc1ccc(Cl)cc1)CCS2, the Potency is reported as inconclusive [inhibitor, single point]. With COc1ccc(S(=O)(=O)NCC(c2ccco2)N2CCc3ccccc32)cc1 (stereo not given) the Potency was active: 14.6 µM. In the case of COc1ccc(NC(=O)C2(C)Cc3c(-c4ccc(NC(C)=O)cc4)ccnc3O2)cc1OC (stereo not given), the Potency is reported as active: 13 µM. In the case of CCC1CCCCN1CCCNC(=O)c1cc2c(=O)n(CC)c3ccccc3c2s1 (stereo not given), the Potency is reported as inconclusive [inhibitor, single point]. In the case of CC1=C(C(=O)N2CCCCCC2)CC(CC(=O)NCCc2ccccn2)C(=O)N1Cc1ccc(C(C)(C)C)cc1 (stereo not given), the Potency is reported as active: 16.4 µM. For O=C1C(SC(F)(F)C(F)F)=C(C(F)(F)F)OC2C3C=CC(C3)C12 (stereo not given), the Potency was inconclusive [inhibitor, single point]. With CCN(CC)c1ccc([N+](=O)[O-])cc1/C=N/NC(=O)CC#N the Potency was inconclusive [inhibitor, partial curve]. In the case of CC(=O)c1cccc(NC(=O)C2Cc3c(-c4ccc5c(c4)OCO5)ccnc3O2)c1 (stereo not given), the Potency is reported as active: 11.6 µM. For C[C@@H](NC(=O)c1ncn2c1c(=O)[nH]c1cccnc12)c1ccccc1, the Potency was “inactive”. With CN1CCN(CCCOc2ccc(-c3ccccc3)cc2)CC1 the Potency was active: 16.4 µM.
